Data on 87 molecules can be found in paper PMC4336329 (PLoS ONE, 2015).

Molecules are shown by their SMILES. The whole screen tested about 310,000 compounds, of which about 14,000 (4.5%) showed an effect of 50% or more. Effects have a minus sign here. Some of the results follow.
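Further: peak tail current of the secondary pulse compared with the same well before compound.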

For the test, the target named is human ether-à-go-go-related gene (hERG) potassium channel (human, UniProt Q12809). Description: primary screen, population patch clamp on CHO cells stably expressing hERG.
Chain of human ether-à-go-go-related gene (hERG) potassium channel (Q12809 whole entry, looked up): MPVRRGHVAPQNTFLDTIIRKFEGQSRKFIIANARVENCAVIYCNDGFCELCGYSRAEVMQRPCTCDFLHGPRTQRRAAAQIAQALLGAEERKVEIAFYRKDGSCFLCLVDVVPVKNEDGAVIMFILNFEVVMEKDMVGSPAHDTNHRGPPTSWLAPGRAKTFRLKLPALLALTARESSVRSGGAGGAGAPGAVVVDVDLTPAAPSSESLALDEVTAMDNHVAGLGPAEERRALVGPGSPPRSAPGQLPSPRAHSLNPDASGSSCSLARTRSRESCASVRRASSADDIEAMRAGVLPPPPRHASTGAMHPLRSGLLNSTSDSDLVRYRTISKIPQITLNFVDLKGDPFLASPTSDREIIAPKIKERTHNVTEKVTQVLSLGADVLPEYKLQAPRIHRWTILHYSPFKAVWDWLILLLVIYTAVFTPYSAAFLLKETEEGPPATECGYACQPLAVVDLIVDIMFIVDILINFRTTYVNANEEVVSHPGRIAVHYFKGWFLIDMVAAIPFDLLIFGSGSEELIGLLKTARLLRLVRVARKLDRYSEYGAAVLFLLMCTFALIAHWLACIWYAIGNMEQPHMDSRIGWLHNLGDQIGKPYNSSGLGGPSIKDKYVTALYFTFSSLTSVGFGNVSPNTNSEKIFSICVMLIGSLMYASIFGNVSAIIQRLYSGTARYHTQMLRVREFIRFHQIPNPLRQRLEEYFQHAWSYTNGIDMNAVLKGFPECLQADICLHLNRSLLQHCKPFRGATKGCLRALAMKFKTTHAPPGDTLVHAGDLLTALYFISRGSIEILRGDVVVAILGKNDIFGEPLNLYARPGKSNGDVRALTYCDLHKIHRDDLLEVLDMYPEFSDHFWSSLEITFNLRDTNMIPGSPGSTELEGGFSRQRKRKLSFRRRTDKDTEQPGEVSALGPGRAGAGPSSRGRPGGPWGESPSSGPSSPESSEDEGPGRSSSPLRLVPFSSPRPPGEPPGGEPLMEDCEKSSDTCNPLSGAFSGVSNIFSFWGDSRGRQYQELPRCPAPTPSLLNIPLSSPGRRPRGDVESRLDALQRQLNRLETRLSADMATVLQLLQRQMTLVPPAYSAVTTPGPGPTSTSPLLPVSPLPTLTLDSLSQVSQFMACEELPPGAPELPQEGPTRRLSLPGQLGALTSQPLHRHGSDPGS
Consider `CCc1cc2cc(OC)ccc2nc1SCC(=O)NNC(=O)c1ccco1`, for which the “hERG current change (%, negative = inhibition) at 10uM” value is 17.9%. Consider `O=S(=O)(c1cccc2cccnc12)n1cnc2ccccc21`, for which the “hERG current change (%, negative = inhibition) at 10uM” value was found to be 0.398%.

For the molecule `CCCn1c(SCC(=O)NCCc2ccc(Cl)cc2Cl)n[nH]c1=O`, the “hERG current change (%, negative = inhibition) at 10uM” value came to 3.12%. Regarding `CCCCNC(=O)C1CCN(Cc2ccc(OCc3ccccc3)c(OC)c2)CC1.O=C(O)C(=O)O`, the “hERG current change (%, negative = inhibition) at 10uM” value is reported as -67.2%.

`O=C(NCC1CCCO1)C(=O)N/N=C/c1c(F)cccc1Cl` (stereo not drawn): the “hERG current change (%, negative = inhibition) at 10uM” value worked out at 8.04%. In the case of `Cc1ccc(S(=O)(=O)N2CCN(CC(=O)NC(=O)NCc3ccco3)CC2)cc1C`, the “hERG current change (%, negative = inhibition) at 10uM” value is -7.18%.

As for `CCC1CCCCN1CCCNC(=O)C1CCN(c2ncnc3c2nc2n3CCCCC2)CC1` (stereo not drawn), the “hERG current change (%, negative = inhibition) at 10uM” value is reported as -3.01%.

Consider `CN1c2ccccc2C(C)(C)C12C=Nc1c(ccc3ccccc13)O2` (stereo not drawn), for which the “hERG current change (%, negative = inhibition) at 10uM” value is given as 20.6%. With `CN(C)CCCNc1nc(N)c([N+](=O)[O-])c(NC2CCCCC2)n1`, the “hERG current change (%, negative = inhibition) at 10uM” value is on record as -44.5%. `O=C(Nc1ccc(Br)cc1)C1CCN(C(=O)c2ccc(F)cc2)CC1`: the “hERG current change (%, negative = inhibition) at 10uM” value is reported as -61.9%. Next, `CN(CC(=O)Nc1cc(S(=O)(=O)N2CCCC2)ccc1Cl)Cc1cccs1`: -16%. To `COc1ccc(OC)c2c(N3CCN(C)CC3)cc(C(F)(F)F)nc12` belongs 5.62%; to `CN1CCN(CCCNC(=O)c2ccc(Cn3c(=S)[nH]c4ccc(Br)cc4c3=O)cc2)CC1`, 17.4%; to `Clc1ccc(-c2nnc(CNC3CC3)o2)cc1`, -8.92%. As for `CC12CCC(=O)N1C(C(=O)NCCN1C(=O)S/C(=C\c3ccc(F)cc3)C1=O)CS2` (stereo not drawn), the “hERG current change (%, negative = inhibition) at 10uM” value is -35.2%. Next, `Cc1ccc(C)c(NC(=O)c2ccc3c(=O)n4c(nc3c2)CCC4)c1`: -25.9%. Next, `CC(C)c1ccc2[nH]c(O)c(N=NC(=O)c3ccc(CSc4nncn4C)cc3)c2c1`: -6.81%; `COC(=O)c1ccc(C23CC4(C2)[C@H](CN(Cc2cccnc2)[C@@H]4c2ccccc2)C3c2ccccc2)cc1` (stereo partly drawn): 12.8%; `Cn1cnnc1SCC(=O)Nc1ccc2nc(SCc3ccccc3F)sc2c1`: -2.21%. To `CCCC(=O)Nc1nnc(S(=O)(=O)N(CC)c2ccc(OC)cc2)s1` belongs 19.6%; to `C/C(=N\NC(N)=S)c1ccccc1`, 4.72%; to `CCN(CC)CCCNC(=O)c1oc2ccc3c(c2c1C)C(O)CC(C)(C)O3` (stereo not drawn), -4.08%.

As for `CC(=O)c1ccc(-c2ccc([C@H]3[C@H]4C=CC[C@@H](C)[C@@H]4C(=O)N3Cc3ccccc3)c(F)c2)cc1`, the “hERG current change (%, negative = inhibition) at 10uM” value came to 4.91%.

Take `Cc1onc(-c2ccccc2)c1C(=O)N(C)CCc1ccccn1`: the “hERG current change (%, negative = inhibition) at 10uM” value amounted to 7.12%. Regarding `CCn1c(O)c(N=NC(=O)CNC(=O)/C=C/c2ccccc2)c2ccccc21`, the “hERG current change (%, negative = inhibition) at 10uM” value worked out at 2.78%. Next, `COc1ccc(OC)c(NS(=O)(=O)c2ccc(NC(=O)C3COc4ccccc4O3)cc2)c1` (stereo not drawn): -5.52%; `CCC1(C)NC(C(=O)O)Cc2c1[nH]c1ccccc21` (stereo not drawn): 7.01%.

For the molecule `CC(=O)C(Sc1nnnn1-c1ccc(O)cc1)c1ccccc1` (stereo not drawn), the “hERG current change (%, negative = inhibition) at 10uM” value is given as -14.3%. `c1ccc(-c2cnc(-c3ccccc3)nc2)cc1`: the “hERG current change (%, negative = inhibition) at 10uM” value is given as 13.4%. Turning to `CCCOC(=O)c1c(N)sc2c1CCC2`, the “hERG current change (%, negative = inhibition) at 10uM” value was 15.4%.

Regarding `Cc1ccc(-c2csc(NCCn3c(-c4ccncc4)nc4ccccc43)n2)cc1`, the “hERG current change (%, negative = inhibition) at 10uM” value is recorded as 9.36%.

Turning to `CC(/C=N/NC(=O)c1cccc(F)c1)=C\c1ccccc1`, the “hERG current change (%, negative = inhibition) at 10uM” value is given as 13.9%. To `COC(=O)[C@H](C)NC(=O)Nc1cccc(C)c1` belongs 14.4%; to `CCC(Sc1nc2sc(C(=O)OC)c(C)c2c(=O)n1N)C(=O)N(CC)CC` (stereo not drawn), -1.27%. Next, `O=C(NC1CCN(S(=O)(=O)c2cccc([N+](=O)[O-])c2)CC1)C1CCCCC1`: 15.3%.

`CC(C)Oc1ncnc2c1[nH]c1ccccc12`: the “hERG current change (%, negative = inhibition) at 10uM” value is given as -1.71%. To `Cc1ccc2[nH]cc(CCNS(=O)(=O)c3ccc(F)cc3)c2c1` belongs -4.39%; to `Cc1cc(NC(=O)CCN2C(=O)/C(=C/c3ccccc3F)SC2=S)no1`, 20.6%. For `Cc1cc(C)cc(NC(=O)COC(=O)CCCC2=NS(=O)(=O)c3ccccc3N2)c1`, the “hERG current change (%, negative = inhibition) at 10uM” value is recorded as -55.9%. Next, `CCOC(=O)c1cn(-c2ccccc2)nc1-c1ccncc1`: -10.3%; `CCn1cc(/C=N\NC(=O)Cc2ccc([N+](=O)[O-])cc2)c(C)n1`: -25.1%; `O=C(N/C=C/c1ccccc1)c1ccccc1`: 15.8%.

Take `COc1ccc(N=C2C(=Nc3ccc(OC)cc3)N(c3ccccc3)C(=S)N2C(=O)c2ccc(Cl)cc2)cc1`: the “hERG current change (%, negative = inhibition) at 10uM” value stood at 1.57%. Turning to `COc1ccccc1-n1c(SCC(=O)NC2CCS(=O)(=O)C2)nc2ccccc2c1=O` (stereo not drawn), the “hERG current change (%, negative = inhibition) at 10uM” value is recorded as -3.39%. To `COc1ccc(NC(=O)COC(=O)CCC(=O)c2cccs2)cc1OC` belongs -9.29%; to `CCN(CC(=O)Nc1c(F)cccc1F)C(=O)C1CCN(S(=O)(=O)c2ccc(C)cc2C)CC1`, -6.91%.

As for `CC(C)[C@H]1C(=O)O[C@H](C(C)C)C(=O)N(C)[C@@H](C(C)C)C(=O)O[C@H](C(C)C)C(=O)N(C)[C@@H](C(C)C)C(=O)O[C@H](C(C)C)C(=O)N1C`, the “hERG current change (%, negative = inhibition) at 10uM” value was -9.97%.

As for `Clc1ccc(/C=C/c2nc3ccccc3[nH]2)c(Cl)c1`, the “hERG current change (%, negative = inhibition) at 10uM” value was -8.14%. Next, `OC(COc1ccc(CNCCc2ccccc2F)cc1)CN1CCCCC1` (stereo not drawn): 3.84%. On to `COC(=O)c1ccc(CNC(=O)C2CCC(=O)N(CCN3CCOCC3)C2)cc1` (stereo not drawn), for which the “hERG current change (%, negative = inhibition) at 10uM” value was 69.7%. Regarding `CCCn1nc2ccccc2c1P(=N)(N1CCOCC1)N1CCOCC1.Cl`, the “hERG current change (%, negative = inhibition) at 10uM” value is recorded as 16%. For `O=C(Cn1nc(C(=O)O)c2ccccc2c1=O)NC12CC3CC(CC(C3)C1)C2`, the “hERG current change (%, negative = inhibition) at 10uM” value came to 6.66%.

Consider `Oc1c(Cl)cc(Cl)c(Cl)c1Cc1c(O)c(Cl)cc(Cl)c1Cl`, for which the “hERG current change (%, negative = inhibition) at 10uM” value was found to be 27.4%. To `CCC1CCCCN1CCCNC(=O)Cn1ncc2c(C)n(Cc3ccccc3Cl)c(C)c2c1=O` (stereo not drawn) belongs -14.6%; to `CC(C)(C)NC(=O)CSC(=Nc1ccccc1F)NC#N`, -0.709%. To `CCn1c(=O)cc(OCC(=O)NCCc2cccc(C)c2)c2ccccc21` belongs -16.2%.

Consider `CCc1cc2c(s1)N(CC(=O)OC)C(=O)CN=C2c1ccccc1OC`, for which the “hERG current change (%, negative = inhibition) at 10uM” value amounted to 10.7%.

`Cc1cccc(NC(=S)Nc2cccc3ccccc23)c1`: the “hERG current change (%, negative = inhibition) at 10uM” value worked out at 15.9%. For the molecule `CC1=CS(=O)(=O)CC1SC(=S)N(C)C1CCS(=O)(=O)C1` (stereo not drawn), the “hERG current change (%, negative = inhibition) at 10uM” value is given as 21.3%. Turning to `CC(C)(C)c1ccc(C(=O)CSc2nc3ccccc3c(=O)[nH]2)cc1`, the “hERG current change (%, negative = inhibition) at 10uM” value is on record as -4.73%. Next, `CCCCOC(=O)CNc1n[nH]c(=S)[nH]c1=O`: 9.69%. With `Cc1ccc(S(=O)(=O)NCC(=O)N2CCN(c3ccccc3F)CC2)cc1`, the “hERG current change (%, negative = inhibition) at 10uM” value is on record as -27.3%. To `CCSc1nnc(NC(=O)c2c(C)noc2C)s1` belongs 6.43%; to `CSc1nc2ccccc2n1Cc1cccc(F)c1`, -14.4%. As to `CCN1C(=O)c2ccccc2Sc2ccc(C(=O)NCCCN3CCOCC3)cc21`, the “hERG current change (%, negative = inhibition) at 10uM” value is recorded as -17.8%. Next, `CSc1ccc(NC(N)=S)cc1`: 17.5%; `CC(=O)OC1CCC2(/C=N/O)C(=CCC3C4CCC(=O)C4(C)CCC32)C1` (stereo not drawn): -7.92%.

In the case of `CCCc1nnc(SCC(=O)Nc2ccc(OCC)cc2)n1N`, the “hERG current change (%, negative = inhibition) at 10uM” value is listed as -3.79%. For `COC(=O)c1cn(C(=O)c2cccc3ccccc23)c2ccccc12`, the “hERG current change (%, negative = inhibition) at 10uM” value was found to be 17.2%. With `Cc1ccc(CNC(=O)CCS(=O)(=O)c2cc3c(cc2Cl)NC(=O)CO3)o1`, the “hERG current change (%, negative = inhibition) at 10uM” value is -24.5%. Consider `Cn1c(/C(C#N)=C/Nc2ccccn2)nc2ccccc21`, for which the “hERG current change (%, negative = inhibition) at 10uM” value worked out at 2.84%.

For the molecule `COc1ccc(S(=O)(=O)N2CCOCC2)cc1C(=O)NCC(c1ccco1)N1CCCC1` (stereo not drawn), the “hERG current change (%, negative = inhibition) at 10uM” value is reported as 3%. On to `COc1ccccc1/C=C/C(=O)NCC(=O)N/N=C/c1ccc(C(=O)O)cc1`, for which the “hERG current change (%, negative = inhibition) at 10uM” value is 26.4%. Turning to `NS(=O)(=O)c1cccc(NC(=O)c2cncc(Br)c2)c1`, the “hERG current change (%, negative = inhibition) at 10uM” value is listed as 17.5%. To `CCCOC(=O)C(=O)NNc1ccccc1` belongs 24.2%; to `Cc1cc(NC(=O)CS(=O)(=O)c2cn(Cc3cccc(F)c3)c3ccccc23)no1`, -11.9%. For `CC(=O)c1ccc(NC(=O)C[n+]2cccc(C)c2)cc1.[Cl-]`, the “hERG current change (%, negative = inhibition) at 10uM” value was -2.87%. Next, `COc1ccc(/C=C2/SC(=S)N(Cc3ccccc3)C2=O)cc1O`: 18.4%; `Cc1cc(C(=O)CC#N)c(C)n1-c1ccc(OC(F)F)cc1`: -21.5%; `O=C(Cn1ccc(NC(=O)OCc2ccccc2)nc1=O)NCc1ccc2c(c1)OCO2`: 24.3%.

Regarding `O=S(=O)(c1cnc(Cl)c(Cl)c1)N1CCc2ccccc21`, the “hERG current change (%, negative = inhibition) at 10uM” value is recorded as 11.7%. In the case of `O=C(NC(=S)Nn1cnnc1)c1ccccc1Cl`, the “hERG current change (%, negative = inhibition) at 10uM” value was 19.2%. Next, `Cc1onc(-c2ccccc2Cl)c1C(=O)N/N=C(\N)COc1ccc(Cl)cc1`: -3.36%; `COc1ccc(NC(=O)Nc2ccc(C)cc2OC(F)F)cc1OC`: 11.5%. In the case of `CCC(C)(C)NC(=O)CN(Cc1cccs1)C(=O)CNS(=O)(=O)c1ccc(F)cc1`, the “hERG current change (%, negative = inhibition) at 10uM” value is given as 4.42%. Consider `COc1ccccc1NS(=O)(=O)c1cc(NC(C)=O)ccc1N1CCCCC1`, for which the “hERG current change (%, negative = inhibition) at 10uM” value was 6.08%. Next, `NC(=O)C[n+]1cccc(C(=O)Nc2ccccc2)c1.[I-]`: 17%.
